The whole screen tested about 310,000 compounds, of which about 2,200 (0.71%) showed an effect of 50% or more. The effect is printed as a negative number. Some of the results follow.
biological target: human ether-à-go-go-related gene (hERG) potassium channel (human, UniProt Q12809); assay: primary screen, population patch clamp on CHO cells stably expressing hERG
Sequence (Q12809 whole entry, looked up): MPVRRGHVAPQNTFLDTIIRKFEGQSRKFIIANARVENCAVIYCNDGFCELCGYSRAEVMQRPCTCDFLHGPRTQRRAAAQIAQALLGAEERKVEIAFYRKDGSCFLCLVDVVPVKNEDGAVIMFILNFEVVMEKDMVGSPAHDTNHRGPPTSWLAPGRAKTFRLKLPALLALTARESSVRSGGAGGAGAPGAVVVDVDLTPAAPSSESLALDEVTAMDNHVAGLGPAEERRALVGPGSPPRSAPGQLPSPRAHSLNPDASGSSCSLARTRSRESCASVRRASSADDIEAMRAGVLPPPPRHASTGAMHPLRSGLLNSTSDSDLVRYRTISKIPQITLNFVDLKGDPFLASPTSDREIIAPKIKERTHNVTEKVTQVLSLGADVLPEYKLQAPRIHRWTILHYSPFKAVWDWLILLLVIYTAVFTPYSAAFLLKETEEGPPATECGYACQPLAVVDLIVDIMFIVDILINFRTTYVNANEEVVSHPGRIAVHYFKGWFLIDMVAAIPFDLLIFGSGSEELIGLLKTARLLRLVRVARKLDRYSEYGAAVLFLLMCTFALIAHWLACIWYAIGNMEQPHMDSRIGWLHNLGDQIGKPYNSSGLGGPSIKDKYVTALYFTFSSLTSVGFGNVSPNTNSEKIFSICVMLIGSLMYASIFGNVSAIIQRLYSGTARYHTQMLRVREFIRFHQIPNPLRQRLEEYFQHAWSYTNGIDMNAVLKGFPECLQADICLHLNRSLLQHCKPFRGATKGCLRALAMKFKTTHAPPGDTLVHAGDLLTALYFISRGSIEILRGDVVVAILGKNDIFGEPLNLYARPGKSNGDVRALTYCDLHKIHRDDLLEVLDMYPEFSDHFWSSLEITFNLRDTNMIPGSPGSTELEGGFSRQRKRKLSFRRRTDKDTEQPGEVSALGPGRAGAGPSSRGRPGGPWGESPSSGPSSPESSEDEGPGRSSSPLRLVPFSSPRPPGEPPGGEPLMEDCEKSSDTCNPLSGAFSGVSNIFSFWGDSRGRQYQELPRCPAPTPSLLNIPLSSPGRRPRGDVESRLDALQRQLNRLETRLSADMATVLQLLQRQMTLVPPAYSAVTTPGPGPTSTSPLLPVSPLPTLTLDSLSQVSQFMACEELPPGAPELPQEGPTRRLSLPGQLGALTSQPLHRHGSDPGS

Compound	hERG current change (%, negative = inhibition) at 1uM [%]
N#CCOC(=O)c1cc(S(=O)(=O)N2CCCCC2)ccc1N1CCOCC1	3.02
COC(=O)C1=C(c2cc3ccccc3s2)C[C@@H]2CC[C@H]1N2C(=O)N1CCCC1	6
CCOc1cc(/C=N\NC(=O)c2ccc(C)nc2)cc([N+](=O)[O-])c1O	-3.87
OCC[C@@H]1C[C@@H](O)[C@H](O)[C@]2(Cc3ccccc3CCO2)O1	14.3
Cc1c(Cl)cccc1NC(=O)CNCc1ccccc1F.O=C(O)C(=O)O	16.5
Cc1cccc(C(=O)NC(=S)Nc2ccc3[nH]c(=O)[nH]c3c2)c1	10.7
O=C(Cc1cccs1)NCc1cccc(CNC(=O)Cc2cccs2)c1	18.4
O=C(CN1CCOCCOCCN(CC(=O)Nc2ccccc2)CCOCC1)Nc1ccccc1	-5.34
O=C(NCCNS(=O)(=O)c1ccccc1)c1ccc([N+](=O)[O-])cc1	8.99
O=C(CSc1ccc(-c2ccc(Br)cc2)nn1)N1CCOCC1	8.33
COc1ccc(/C=C2/S/C(=N/S(=O)(=O)Cc3ccccc3)NC2=O)cc1OC	4.21
CC(C)CNS(=O)(=O)c1ccc(OCC(=O)NCc2ccco2)cc1	12.2
CCC1(C)Cc2c(sc3nc(NN)n(C)c(=O)c23)CO1 (centres unmarked)	9.17
COC(=O)c1c(NC(=O)c2ccc(C)c(S(=O)(=O)Nc3ccccc3C)c2)sc2c1CCCC2	-6.38
Cc1nn(-c2ccccc2)c(Cl)c1CN(C(=O)CCl)c1ccc(Cl)cc1	4.08
COc1ccc(C(=O)NCC2CCCN2S(=O)(=O)c2cccs2)cc1 (centres unmarked)	10.4
COc1ccc(OC)c(Nc2nc(-c3ccccc3O)nc3ccccc23)c1	12.6
O=C(Nc1nnc(C2CCCC2)s1)C1CCN(S(=O)(=O)c2ccc(Cl)cc2)CC1	16.9
COc1cc(C(=O)NNC(=S)NCc2ccco2)cc(OC)c1OC	16.9

Compound	hERG current change (%, negative = inhibition) at 1uM [%]
CC(C)CN1CCN(Cc2ccc3ncccc3c2)CC1CCO (centres unmarked)	4.26
CCN1C(=O)C(=Cc2ccc(C)s2)C(=O)N(CC)C1=S	8.29
Cc1ccc(-c2nc(C3CCCN(S(=O)(=O)c4ccc(C(F)(F)F)cc4)C3)no2)cc1 (centres unmarked)	4.01
CCCc1ccc2oc(C(=O)N3CCN(CCC(N)=O)CC3)c(C)c2c1	7.88
CC#CC(=O)NCC1(N(C)Cc2ccccc2)Cc2ccccc2C1	9.72
COC(=O)C1CSC(C(=O)OC)N1C(=O)CN1CC(C)OC(C)C1 (centres unmarked)	-4.93
CN1C2C=C(N(CCc3c[nH]c4ccccc34)C(=O)c3ccc(Cl)cc3)CC1CC2.Cl (centres unmarked)	-41.4
CCOC(=O)c1c(C)[nH]c(C)c1C(=O)CSc1nc2ccccc2n1CCOC	7.02
Cc1cc(C)cc(N(C(C)C(=O)NC2CCCC2)S(C)(=O)=O)c1 (centres unmarked)	8.62
O=C(c1cc(-c2ccc(Cl)cc2)on1)N1CCN(c2ccc(F)cc2)CC1	11.9
Cc1ccc2nc(SCC(=O)N3c4ccccc4CC3C)c(C)cc2c1 (centres unmarked)	11.4
CCCS(=O)(=O)c1nc(S(=O)(=O)c2ccc(C)cc2)c(NCCN2CCOCC2)s1	10.7
Cn1cc(CNC(=O)c2ccc3nc(Cc4ccccc4F)oc3c2)cn1	13.2
CCOc1ccccc1C(=O)N1c2ccccc2Sc2ccccc21	8.01
COc1ccccc1CC(=O)NC1CC(C)(C)NC(C)(C)C1.Cl	-1.09
CCc1nc2cccnc2n1-c1ccc(C(=O)O)cc1	7.99
CCCCn1c2ccc(F)cc2c2nnc(SCCN3CCOCC3)nc21	-8.43
COc1ccc(NC(=O)CSc2nnc(-c3ccc(C)cc3)n2N)cc1	8.38
CN(C)C/C(Cl)=C(\Cl)c1ccccc1	11.8

Compound	hERG current change (%, negative = inhibition) at 1uM [%]
Cc1cc(C)cc(Nc2ccc(C(=O)O)cc2N)c1	11.5
NS(=O)(=O)c1ccc(CCNC(=O)CSc2nnc3ccccn23)cc1	15.3
CC(NS(=O)(=O)c1ccc(CCC(=O)NCC2CCCO2)cc1)c1ccccc1 (centres unmarked)	11.6
COc1cc(C(=O)Nc2ccccc2N2CCOCC2)ccc1OCc1c(C)noc1C	3.39
O=C(CCNC(=O)C1CCN(S(=O)(=O)c2ccc(F)cc2)CC1)NCc1ccccc1	14
CCOc1ccc(-c2nnc(SCC(=O)N3CCNC3=O)o2)cc1	19.9
Cc1cc(OCC(=O)N2CCN(c3cccc(Cl)c3)CC2)c2c(C)c(C)c(=O)oc2c1	2.91
O=C(C1COc2ccccc2O1)N1CCN(Cc2ccccc2)CC1 (centres unmarked)	7.8
C/C(=N\O)C(C)(C)Nc1cccc(Br)c1	14.3
COc1ccc(-n2c(SCC(N)=O)nc3nc4c(cc3c2=O)COC(C)(C)C4)cc1	12.9
COc1ccc(N=Nc2c(O)[nH]c(=S)[nH]c2=O)cc1	3.05
O=C(O)CN(c1ccccn1)S(=O)(=O)c1ccccc1	-0.863
O=C(O)c1ccc(N2C(=O)CC(Cc3ccccc3)C2=O)cc1 (centres unmarked)	11.6
CCS(=O)(=O)c1nc(S(=O)(=O)c2ccc(Cl)cc2)c(NCCCN2CCOCC2)s1	8.39
O=C(Nc1ccc(-c2nc3ccccc3s2)c(O)c1)C1=COCCO1	-36.8
CCCCc1noc2c1/C(=N\O)CC(c1ccccc1)C2 (centres unmarked)	9.36
CC(NC(=O)c1ccc2c(c1)OCO2)c1ccccc1 (centres unmarked)	11.3
O=C(c1ccccc1)N1CCN(c2ncnc3c2cnn3-c2ccccc2)CC1	0.304

From publication PMC4336329 (PLoS ONE, 2015)
